The series deals with ATP. Nature of the series: switch fluorescence ratio, 500 uM ATP over buffer (Cy3 cluster intensity, sum of 5 cycles each) (fold (ratio)); higher = stronger signal-on switching upon ATP binding; sequences stand for … in TCGTCGGCAGCGTCAGATGTGTATAAGAGACAGTTTTTTTTTTTTTTTTTTTTTTTTT…TC. To be noted: aptamer strand: ATP DNA aptamer (quencher-CACCTGGGGGAGTATTGCGGAGGAAGG + anchor), 100 nM annealed; ATP concentration: 500 uM; one replicate. Summed up: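 Five buffer/ATP imaging cycles were run on Cy3-labelled switching-strand clusters on a modified Illumina MiSeq flow-cell, with NaOH stripping and re-annealing between cycles. In each cycle, clusters annealed to 100 nM quencher-labelled ATP aptamer were imaged in selection buffer, then after 15 min with 500 uM ATP at 22 °C. Per cluster, the fluorescence ratio is summed target-cycle over summed buffer-cycle Cy3 intensity, averaged per switch-domain sequence. Only clusters within 100-1000 RFU were kept.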

Sequences with one replicate were seen in a single cluster, so their values are uncertain.
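Note: ATP exposure 15 min at 22 °C before imaging.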

Take TCACTGGGGG: the switch fluorescence ratio was found to be 0.983.
The result for AACATGTT reads 1.06; that for ATCGCCGCGG, 0.981.
The value for TAATTCACTT was 1.01; that for TTACTGGTGG was 0.978.
On to TAAAAGCTAG, for which the switch fluorescence ratio stood at 1.02.
TGTTTTGG: the switch fluorescence ratio worked out at 0.971.
On to TATAAACAA, for which the switch fluorescence ratio was found to be 1.02.
In the case of CGCGGCCGGA, the switch fluorescence ratio amounted to 0.989.
The result for GGCGTCTTCG reads 0.997; that for CAGGGTTA, 0.966.
On to GATCCGATTA, for which the switch fluorescence ratio turned out to be 1.01.
With TTTTACAGAA, the switch fluorescence ratio turned out to be 1.
The value for GTTGAGATGG was 0.965.
As to CTAACAGTAA, the switch fluorescence ratio is 1.05.
The value for AATACCAATG was 1.01; that for GGAGGACCAG was 0.958.
For the sequence GTTGACTGAG, the switch fluorescence ratio is 1.04.
In the case of GTTTTGCCGC, the switch fluorescence ratio was found to be 0.991.
The value for CTGTACCCCT was 1.12; that for TTGAAAGCCG was 1.14; that for TTGCGAGCAT was 1.04.
ATAACACTGG: the switch fluorescence ratio is 1.07.
In the case of CCAATTTACA, the switch fluorescence ratio stood at 1.52.
AACACTATTA: the switch fluorescence ratio is 0.999.
For the sequence GTGTCAATGC, the switch fluorescence ratio is 1.9.
With GCGCCCCGAG, the switch fluorescence ratio is 0.986.
ATACGTACGA: the switch fluorescence ratio was 1.66.
As to CCCGTGTTGA, the switch fluorescence ratio came to 1.02.
As for GCTAGCGTGT, the switch fluorescence ratio came to 0.997.
GCATTTGCGG: the switch fluorescence ratio turned out to be 0.936.
The result for GTTTAACCGT reads 1.02.
With TCGATGTGTG, the switch fluorescence ratio amounted to 0.998.
The result for TTTTTAT reads 0.972.
With GACGTCAGGC, the switch fluorescence ratio came to 1.05.
The value for CCGACTGAAG was 1.05; that for TGCGAGCAGA was 0.99.
The result for GCTACGAATG reads 1.04; that for GTAATCAGTC, 0.991.
GTATTTTTG: the switch fluorescence ratio was 1.05.
The result for TAAAGTGGAT reads 0.996; that for TGCGTGGCAA, 1.01.
In the case of GACTGCACTT, the switch fluorescence ratio came to 1.37.
With TCGTCCGTGT, the switch fluorescence ratio was 1.26.
For GAGCCACTTC, the switch fluorescence ratio was 1.05.
Take TGGTGCTGAG: the switch fluorescence ratio stood at 1.01.
Regarding CTGAGCCCAG, the switch fluorescence ratio came out at 1.05.
The result for ATATTCGTCA reads 0.971; that for AAATAGGATT, 1.03.
For ATGCCTAAGG, the switch fluorescence ratio was found to be 0.979.
As for CTGCGGTGCT, the switch fluorescence ratio came out at 1.2.
In the case of AATACGAGTT, the switch fluorescence ratio was found to be 1.06.
In the case of CGTTCCGTGG, the switch fluorescence ratio stood at 1.02.
The value for TATGGGGTA was 1.01.
The result for TTCGCTTGTT reads 1.01; that for ATAATGTGTA, 1.06.
The value for AAAAATGCCC was 1.11.
Turning to TAATTGATAT, the switch fluorescence ratio is 0.938.
With TACTAAGGGC, the switch fluorescence ratio worked out at 1.01.
On to TTACGTTAGC, for which the switch fluorescence ratio was found to be 1.11.

Source of the values: the supplement of paper PMC10126150.
